Results: PubChem BioAssay (Tox21)
Inconclusive results, whose numbers are uncertain, are shown with a selection of clear calls. For part of these data: A potency beside an inconclusive call is a rough fit, not a confirmed value. Activity calls are given as the source filed them. Unless noted, calls come from the whole dose curve; as a rule, active = well fitted curve in the direction sought with a large enough effect in the repeat runs; inconclusive = weak or mixed curves; inactive = no such curve, though single readings can be large; an effect the other way counts as inactive or inconclusive.

Key:
[1] = qHTS assay for small molecule agonists of the p53 signaling pathway (AID 651631; calls by dose curve; note: potency is the fitted concentration of half-maximal effect; nearly all actives have a fitted effect of over 15% in size); settings: HCT-116 p53RE-bla reporter, beta-lactamase FRET ratio, 16 h; activation: at 73.3 µM (top of the series) unless noted
In short: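 We treat p53RE-bla HCT-116 cells with compounds for 16 h at 37 °C, add LiveBLAzer B/G FRET substrate for 2 h at room temperature, and measure fluorescence intensity.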

[2] = qHTS assay for small molecule disruptors of the mitochondrial membrane potential (AID 720635); settings: HepG2 mitochondrial membrane potential, Mito-MPS dye ratio; ratio activity, negative = MMP loss: at 83.2 µM (top of the series) unless noted; note: potency is the fitted concentration of half-maximal effect; for ratio activity, negative = MMP loss: % is set by controls: 0 for no effect and ±100 for the full control effect
In short: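 HepG2 cells exposed to compound 1 hr at 37C, then Mito-MPS dye 30 min. Ratio read of aggregate (540/590 nm) versus monomer (490/535 nm) fluorescence.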

[3] = molecular target: Glucocorticoid receptor (Homo sapiens) (UniProt P04150); experiment: qHTS assay to identify small molecule agonists of the glucocorticoid receptor (GR) signaling pathway (AID 720691; active = well fitted activation curve with a large enough effect in the signal ratio in the repeat runs, not every such curve was filed as active; inconclusive = weak or mixed curves, or effect the other way; inactive = no such curve, though single readings can be large or run the other way; the % refers to the signal ratio; note: potency is the fitted concentration of half-maximal effect); settings: GR-bla HeLa, beta-lactamase reporter ratio, 18 h; activation: at 62.4 µM (top of the series) unless noted
UniProt P04150, sequence (P04150 whole entry, looked up): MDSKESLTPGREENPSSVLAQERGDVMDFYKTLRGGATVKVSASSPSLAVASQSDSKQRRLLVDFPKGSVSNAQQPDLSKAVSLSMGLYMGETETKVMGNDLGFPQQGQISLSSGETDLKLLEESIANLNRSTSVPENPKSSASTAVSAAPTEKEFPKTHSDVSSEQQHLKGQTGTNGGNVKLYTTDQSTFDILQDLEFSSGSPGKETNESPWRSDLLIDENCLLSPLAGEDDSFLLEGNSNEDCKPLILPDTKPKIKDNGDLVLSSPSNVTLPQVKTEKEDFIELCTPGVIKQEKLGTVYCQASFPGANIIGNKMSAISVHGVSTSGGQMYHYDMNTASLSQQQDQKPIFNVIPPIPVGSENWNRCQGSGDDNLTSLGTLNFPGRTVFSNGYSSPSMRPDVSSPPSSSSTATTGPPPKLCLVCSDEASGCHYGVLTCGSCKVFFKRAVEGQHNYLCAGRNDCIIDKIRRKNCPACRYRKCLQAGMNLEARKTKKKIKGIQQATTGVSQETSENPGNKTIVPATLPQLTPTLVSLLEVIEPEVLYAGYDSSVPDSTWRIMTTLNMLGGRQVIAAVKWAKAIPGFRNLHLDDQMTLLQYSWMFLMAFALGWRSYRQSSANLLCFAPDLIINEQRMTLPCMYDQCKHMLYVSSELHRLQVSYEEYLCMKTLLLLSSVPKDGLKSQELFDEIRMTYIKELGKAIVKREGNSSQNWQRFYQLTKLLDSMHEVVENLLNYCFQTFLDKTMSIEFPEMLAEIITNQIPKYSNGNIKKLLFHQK
In short: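 Reporter read-out: fluorescence intensity following 2 h room-temperature LiveBLAzer B/G FRET substrate loading. Prior step: GR-bla HeLa cells held 4 h, then treated 18 h at 37 C.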

[4] = molecular target: Glucocorticoid receptor (Homo sapiens) (UniProt P04150); experiment: qHTS assay to identify small molecule antagonists of the glucocorticoid receptor (GR) signaling pathway (AID 720692; active = well fitted inhibition curve with a large enough effect in the signal ratio in the repeat runs, not every such curve was filed as active; inconclusive = weak or mixed curves, or effect the other way; inactive = no such curve, though single readings can be large or run the other way; the % refers to the signal ratio; note: potency is the fitted concentration of half-maximal effect); settings: GR-bla HeLa, beta-lactamase FRET ratio, dexamethasone-stimulated, 18 h; activity change, negative = inhibition: at 58.5 µM (top of the series) unless noted
In short: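 Dexamethasone (5 nM final) stimulated a stably integrated GRE-beta-lactamase reporter in HeLa cells during 18 h co-incubation with compounds; signal was quantified as fluorescence intensity of B/G FRET substrate after 2 h.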

[5] = qHTS assay to identify small molecule antagonists of the glucocorticoid receptor (GR) signaling pathway - cell viability counter screen (AID 720693); settings: GR-bla HeLa viability, CellTiter-Glo luminescence, 18 h, with 5 nM dexamethasone present; viability change, negative = cytotoxic: at 58.5 µM (top of the series); note: potency is the fitted concentration of half-maximal effect; nearly all actives have a fitted effect of over 55% in size
[6] = qHTS assay to identify small molecule antagonists of the androgen receptor (AR) signaling pathway - cell viability counter screen (AID 743033; note: nearly all actives have a fitted effect of over 45% in size; note: potency is the fitted concentration of half-maximal effect; for activity change, negative = cytotoxicity: % is set by controls: 0 for no effect and ±100 for the full control effect); settings: AR-bla HEK293 viability, CellTiter-Glo luminescence, 16 h; activity change, negative = cytotoxicity: at 58.5 µM (top of the series) unless noted
[7] = qHTS assay to identify small molecule antagonists of the estrogen receptor alpha (ER-alpha) signaling pathway - cell viability counter screen (AID 743074; calls by dose curve;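 note: HEK293 cells carrying ER-alpha-UAS-bla reporter stimulated with 17beta-estradiol; potency is the fitted concentration of half-maximal effect; nearly all actives have a fitted effect of over 45% in size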)
[8] = qHTS assay to identify small molecule antagonists of the estrogen receptor alpha (ER-alpha) signaling pathway using the BG1 cell line - cell viability counter screen (AID 743081); settings: BG1Luc4E2 viability, CellTiter-Fluor, 22 h; activity change, negative = cytotoxicity: at 70.3 µM (top of the series) unless noted;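 note: compound given together with 17beta-estradiol as the ER stimulus; potency is the fitted concentration of half-maximal effect; nearly all actives have a fitted effect of over 45% in size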
[9] = molecular target: Peroxisome proliferator-activated receptor gamma (Homo sapiens) (UniProt P37231); experiment: qHTS assay to identify small molecule agonists of the peroxisome proliferator-activated receptor gamma (PPARg) signaling pathway (AID 743094; active = well fitted activation curve with a large enough effect in the signal ratio in the repeat runs, not every such curve was filed as active; inconclusive = weak or mixed curves, or effect the other way; inactive = no such curve, though single readings can be large or run the other way; the % refers to the signal ratio; note: potency is the fitted concentration of half-maximal effect; for activation: % is set by controls: 0 for no effect and ±100 for the full control effect); settings: HEK293H PPARg-UAS-bla, beta-lactamase FRET ratio, 17 h; activation: at 57 µM (top of the series) unless noted
UniProt P37231, sequence (P37231 whole entry, looked up): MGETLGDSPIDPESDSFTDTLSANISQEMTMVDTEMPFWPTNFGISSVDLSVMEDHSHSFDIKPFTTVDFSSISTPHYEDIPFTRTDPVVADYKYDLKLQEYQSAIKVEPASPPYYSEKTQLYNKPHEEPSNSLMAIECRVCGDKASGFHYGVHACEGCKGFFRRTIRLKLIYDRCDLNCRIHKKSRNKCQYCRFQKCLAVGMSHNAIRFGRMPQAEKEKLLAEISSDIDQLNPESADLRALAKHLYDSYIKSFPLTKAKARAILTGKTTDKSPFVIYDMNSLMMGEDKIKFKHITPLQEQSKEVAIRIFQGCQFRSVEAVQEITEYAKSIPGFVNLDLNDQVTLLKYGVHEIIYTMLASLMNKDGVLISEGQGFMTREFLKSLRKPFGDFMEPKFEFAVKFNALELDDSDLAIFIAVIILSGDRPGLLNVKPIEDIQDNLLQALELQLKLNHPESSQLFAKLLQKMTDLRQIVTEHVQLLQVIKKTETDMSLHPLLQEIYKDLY
In short: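 Following 5 h plating at 37C, PPARg-bla HEK293H cells receive compound or DMSO for 17 h; fluorescence intensity is recorded after LiveBLAzer B/G loading for 1 h at room temperature.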

[10] = qHTS assay for identifying genotoxic compounds that show differential cytotoxicity against isogenic chicken DT40 cell lines with known DNA damage response pathways - Rev3 mutant cell line (AID 743014); settings: chicken DT40 Rev3-/- viability, CellTiter-Glo, 40 h; activity, negative = cytotoxicity: at 68.4 µM (top of the series) unless noted; note: nearly all actives have a fitted effect of over 55% in size; note: potency is the fitted concentration of half-maximal effect
[11] = qHTS assay to identify small molecule antagonists of the androgen receptor (AR) signaling pathway using the MDA cell line - cell viability counter screen (AID 743041; note: nearly all actives have a fitted effect of over 45% in size; note: potency is the fitted concentration of half-maximal effect); settings: MDA-kb2 viability, CellTiter-Fluor, 16 h, cells co-treated with R1881 androgen agonist; viability change, negative = cytotoxic: at 70.3 µM (top of the series)
In short: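 MDA-kb2 AR-luc cells (MMTV-luciferase, AR/GR responsive) treated with compounds plus R1881 agonist for 16 h at 37C. CellTiter-Fluor added at 15.5 h; fluorescence read after 30 min in the same wells.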

[12] = qHTS assay to identify small molecule antagonists of the thyroid receptor (TR) signaling pathway - cell viability counter screen (AID 743064); settings: GH3.TRE-Luc viability, CellTiter-Fluor, 24 h; activity change, negative = cytotoxic: at 70.3 µM (top of the series) unless noted; note: potency is the fitted concentration of half-maximal effect; nearly all actives have a fitted effect of over 50% in size
In short: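 In rat pituitary GH3.TRE-Luc reporter cells co-exposed to compound and 1 nM T3 for 23.5 h, cytotoxicity was assessed with CellTiter-Fluor in the same wells, read by fluorescence.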

[13] = molecular target: Estrogen receptor (Homo sapiens) (UniProt P03372); experiment: qHTS assay to identify small molecule antagonists of the estrogen receptor alpha (ER-alpha) signaling pathway (AID 743069; active = well fitted curve in the direction sought with a large enough effect in the signal ratio in the repeat runs, not every such curve was filed as active; inconclusive = weak or mixed curves, or effect the other way; inactive = no such curve, though single readings can be large or run the other way; the % refers to the signal ratio; note: potency is the fitted concentration of half-maximal effect); settings: HEK293 ER-alpha-UAS-bla, beta-lactamase ratio, antagonist mode; activity, negative = inhibition: at 69.4 µM (top of the series) unless noted
UniProt P03372, sequence (P03372 whole entry, looked up): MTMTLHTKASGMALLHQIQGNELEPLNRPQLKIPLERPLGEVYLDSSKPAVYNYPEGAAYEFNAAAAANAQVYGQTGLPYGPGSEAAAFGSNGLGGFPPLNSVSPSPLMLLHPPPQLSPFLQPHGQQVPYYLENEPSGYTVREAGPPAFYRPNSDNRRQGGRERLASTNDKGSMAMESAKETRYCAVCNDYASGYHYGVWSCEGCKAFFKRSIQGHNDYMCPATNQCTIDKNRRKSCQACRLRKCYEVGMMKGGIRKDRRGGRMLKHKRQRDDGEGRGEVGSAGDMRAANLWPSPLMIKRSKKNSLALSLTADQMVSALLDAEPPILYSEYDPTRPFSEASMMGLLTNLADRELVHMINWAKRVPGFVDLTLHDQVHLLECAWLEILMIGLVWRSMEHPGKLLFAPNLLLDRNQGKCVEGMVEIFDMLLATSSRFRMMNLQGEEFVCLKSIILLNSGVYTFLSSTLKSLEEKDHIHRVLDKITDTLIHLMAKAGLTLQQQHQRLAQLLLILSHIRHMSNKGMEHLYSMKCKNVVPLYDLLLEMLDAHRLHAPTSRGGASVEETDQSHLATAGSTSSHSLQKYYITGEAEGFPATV
In short: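 HEK293 ER-alpha-UAS-bla GripTite cells, held overnight in 2% charcoal-stripped FBS, 5,000 cells/well, preincubated 4 h, then compound plus 17beta-estradiol for 18 h at 37C. Beta-lactamase read by LiveBLAzer B/G FRET substrate, 2 h at room temperature.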

[14] = molecular target: Estrogen receptor (Homo sapiens) (UniProt P03372); experiment: qHTS assay to identify small molecule agonists of the estrogen receptor alpha (ER-alpha) signaling pathway using the BG1 cell line (AID 743079); settings: BG1Luc4E2 cells, ERE-luciferase agonist, 22 h; activation: at 70.3 µM (top of the series) unless noted; note: potency is the fitted concentration of half-maximal effect; nearly all actives have a fitted effect of over 20% in size
[15] = qHTS assay to identify aromatase inhibitors - cell viability counter screen (AID 743084); settings: MCF-7 aro ERE viability, CellTiter-Fluor, 24 h; activity change, negative = cytotoxicity: at 70.3 µM (top of the series) unless noted;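 note: cells stimulated with testosterone during compound exposure; potency is the fitted concentration of half-maximal effect; nearly all actives have a fitted effect of over 55% in size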
[16] = qHTS assay for identifying genotoxic compounds that show differential cytotoxicity against isogenic chicken DT40 cell lines with known DNA damage response pathways - Rad54/Ku70 mutant cell line (AID 743015); settings: DT40 Rad54/Ku70 mutant viability, CellTiter-Glo, 40 h; activity change, negative = cytotoxicity: at 66.8 µM (top of the series) unless noted; note: nearly all actives have a fitted effect of over 60% in size; note: potency is the fitted concentration of half-maximal effect
[17] = system: thyroid hormone receptor (rat, GH3 cells); experiment: qHTS assay to identify small molecule agonists of the thyroid receptor (TR) signaling pathway (AID 743066; calls by dose curve; note: % is set by controls: 0 for no effect and ±100 for the full control effect); settings: GH3.TRE-Luc cells, TR agonist luciferase, 24 h; activation: at 83.9 µM (top of the series) unless noted
[18] = qHTS assay to identify small molecule antagonists of the estrogen receptor alpha (ER-alpha) signaling pathway using the BG1 cell line (AID 743080; calls by dose curve;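 note: BG1 cells stimulated with 17beta-estradiol alongside compound; potency is the fitted concentration of half-maximal effect; nearly all actives have a fitted effect of over 25% in size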); settings: BG1Luc4E2 ERE-luciferase antagonist mode, luminescence; activity change, negative = inhibition: at 70.3 µM (top of the series) unless noted
In short: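 Endogenous full-length ER-alpha in BG1-Luc-4E2 cells drives a stably integrated 4×ERE luciferase gene; compounds were tested against 17beta-estradiol over 21.5 h, with luminescence and multiplexed viability fluorescence recorded.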

[19] = qHTS assay for identifying genotoxic compounds that show differential cytotoxicity against isogenic chicken DT40 cell lines with known DNA damage response pathways - wild type cell line (AID 743012); settings: DT40 wild type chicken cells viability, CellTiter-Glo, 40 h; activity change, negative = cytotoxicity: at 68.4 µM (top of the series) unless noted; note: % is set by controls: 0 for no effect and ±100 for the full control effect; nearly all actives have a fitted effect of over 60% in size
In short: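 Using parental DT40 (300 cells/well), compounds delivered in DMSO incubate 40 h at 37 C/5% CO2. CellTiter-Glo reagent then stands 30 min at room temperature, and luminescence gives cell viability.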
Tags give direction and shape of the fitted curve or compound fluorescence and quenching.

C=C1C(=C/C=C2\CCC[C@]3(C)[C@@H]([C@H](C)CCCC(C)C)CC[C@@H]23)C[C@@H](O)C[C@@H]1O
inconclusive: Potency [3] 30.1 µM [cytotoxic, single point] | Potency [7] 26.8 µM [cytotoxic, single point] | Potency [8] 23.7 µM [cytotoxic, partial curve, poor fit] | activation [9] -14.5%
inactive: Potency [6]
active: Potency [1] 29.8 µM | Potency [2] 29.8 µM | Potency [4] 8.49 µM | Potency [5] 21.3 µM

O=C(O)CN(CC(=O)O)CC1=CC2C(=CC1=O)Oc1cc(O)c(CN(CC(=O)O)CC(=O)O)cc1C21OC(=O)c2ccccc21 (centres undefined)
inconclusive: Potency [1] 26.6 µM [rising, partial curve] | Potency [2] 2.11 µM [fluorescent, full curve] | Potency [3] 23.9 µM [rising, partial curve] | Potency [4] 26.8 µM [rising, single point] | Potency [10] 26.6 µM [rising, partial curve, poor fit] | Potency [11] 26.6 µM [rising, partial curve] | Potency [12] 29.8 µM [rising, partial curve] | Potency [13] 23.9 µM | Potency [7] 30.1 µM [cytotoxic, partial curve, poor fit] | Potency [14] 26.6 µM [activator, partial curve] | Potency [8] 11.9 µM [rising, partial curve] | Potency [15] 33.5 µM [cytotoxic, single point] | Potency [9] 26.8 µM

CCCc1nc(C(C)(C)O)c(C(=O)OCc2oc(=O)oc2C)n1Cc1ccc(-c2ccccc2-c2nn[nH]n2)cc1
inactive: Potency [2] | Potency [10] | Potency [6]
inconclusive: Potency [1] 33.5 µM [falling, partial curve, poor fit] | Potency [16] 18.8 µM [cytotoxic, partial curve, poor fit]

CN=C1C=CC(=C(c2ccc(N(C)C)cc2)c2ccc(N(C)C)cc2)C=C1
active: Potency [2] 0.0441 µM | Potency [5] 7.56 µM | Potency [10] 1.06 µM | Potency [6] 0.535 µM | Potency [11] 7.5 µM | Potency [7] 9.52 µM | Potency [8] 11.9 µM | Potency [15] 6.68 µM
inconclusive: Potency [1] 18.8 µM [cytotoxic, partial curve] | Potency [4] 16.9 µM [cytotoxic, partial curve] | activation [17] -9.18% [phenotype inactive] | Potency [13] 4.77 µM [inhibitor, full curve] | Potency [14] 3.76 µM [inhibitor, full curve] | Potency [18] 7.5 µM [falling, full curve] | Potency [9] 8.49 µM [activator, partial curve]

C[C@H](/C=C/[C@H](C)C(C)(C)O)[C@H]1CC[C@H]2/C(=C/C=C3C[C@@H](O)C[C@H](O)C3)CCC[C@]12C
active: Potency [18] 29.8 µM
inconclusive: Potency [1] 9.44 µM [falling, full curve] | Potency [2] 9.44 µM [inhibitor, partial curve] | Potency [4] 10.7 µM [inhibitor, full curve] | Potency [5] 26.8 µM [cytotoxic, single point] | Potency [12] 33.5 µM [cytotoxic] | activation [17] -8.1% [phenotype inactive] | Potency [7] 9.52 µM [cytotoxic, partial curve] | Potency [14] 6.68 µM [inhibitor, partial curve]
inactive: Potency [19] | Potency [16] | Potency [11]
